Reference: PubChem BioAssay AID651820 (National Center for Advancing Translational Sciences (NCATS), 2012)
Among all 340,000 compounds or so, about 12,000 (3.5%) were called active. The shares of active, inactive and inconclusive entries below differ from those in the screen. The call rests on the fitted dose curve; in most records, active means well fitted inhibition curve with a large enough effect; inconclusive means small, poorly fitted or top-dose-only effect, or another doubt; inactive means no such curve, though single readings can be large or run the other way. No potency is given beside an inconclusive call; the fits are too rough.

Assay: qHTS Assay for Inhibitors of Hepatitis C Virus (HCV)
Details: Huh7.5.1 HCVcc-Cre (HCVcc is cell-culture hepatitis C virus) infection, luciferase reporter, 44 h; activity change, negative = inhibition: at 41.8 µM (top of the series) unless noted
Summary of the method: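 Seed cells (1,000/well) for 4 h; treat with compound and infect with HCVcc-Cre, moi about 0.5. Incubate 44 h, then detect luciferase activity.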
On the % scale 0 is the no-effect control and ±100 the full control effect; potency means the concentration at half of the fitted maximal effect; tags describe the fitted curve by direction and shape.

SMILES | Potency | activity change, negative = inhibition
N#Cc1ccccc1Sc1ccccc1C(=O)NCC(c1ccco1)N1CCCCC1 (stereo not drawn) | inconclusive [inhibitor, single point] | 
COc1ccccc1N1CCN(C(=O)Cn2c(=O)[nH]c3ccsc3c2=O)CC1 | inconclusive [inhibitor, single point] | 
COc1cc(NC(C)C(=O)N2CC(C)OC(C)C2)cc(OC)c1 (stereo not drawn) | inconclusive [inhibitor, single point] | 
O=C(CSc1nnc2ccc(-c3ccc(F)cc3)nn12)N1CCOCC1 |  | inactive: 15.3%
COc1ccc(/C=C2\SC(=O)N(CC(=O)Nc3cccc(C)c3)C2=O)cc1O | inconclusive [inhibitor, single point] | 
C/C(=N\NC(=O)c1ccncc1)c1ccc(NC(=O)c2ccc(Cl)cc2)cc1 |  | inactive: -1.37%
CC(C)C[C@@]12C(=O)N(c3cccc(Br)c3)C(=O)N1[C@H](c1ccc(Cl)cc1)[C@@H]1C(=O)N(C3CCCCC3)C(=O)[C@@H]12 |  | inactive: 16.8%
COc1ccc(NC(=O)C2CCCN(S(C)(=O)=O)C2)cc1Cl (stereo not drawn) |  | inactive: 12.3%
CN(C)C(=O)C(OC(=O)c1ccc2ccccc2n1)c1ccccc1 (stereo not drawn) |  | inactive: -9.69%
Cc1ccc(S(=O)(=O)N2CCN(c3ncnc4scc(-c5ccccc5)c34)CC2)cc1 | inconclusive [inhibitor, single point] | 
CC(C)(CNC(=O)c1ccc(S(=O)(=O)Nc2ccccc2F)cc1)N1CCOCC1 | inconclusive [inhibitor, single point] | 
Cc1ccccc1CNC(=O)CCc1ccccc1 |  | inactive: -1.16%
Cc1c(Cl)cnc(NC(=O)COC(=O)c2ccc(S(=O)(=O)NCc3ccco3)cc2)c1Cl | inconclusive [inhibitor, single point] | 
COc1ccc(Nc2nc(-c3cccnc3)cs2)c(OC)c1 | inconclusive [inhibitor, single point] | 
C=CC[C@@H](CC(=O)N[C@@H](CO)Cc1ccccc1)C(=O)N[C@@H](COC(=O)[C@@H](CC=C)Cc1ccc(F)cc1)Cc1ccccc1 | inconclusive [inhibitor, single point] | 
Cc1ccc(S(=O)(=O)N(Cc2ccccc2)c2ccccc2C(=O)NCc2ccco2)cc1 | inconclusive [inhibitor, single point] | 
COc1ccc(C(=O)NNC2CC(=O)N(Cc3ccc(Cl)cc3)C2=O)cc1OC (stereo not drawn) |  | inactive: -0.559%
O=C(CC(=O)c1ccccn1)c1ccccc1 | inconclusive [inhibitor, single point] | 
CN(Cc1ccccc1)C(=O)COC(=O)c1cc([N+](=O)[O-])ccc1N1CCOCC1 | inconclusive [inhibitor, partial curve] | 
CC(=O)Nc1ccc(S(=O)(=O)Oc2ccccc2N2CCCCC2)cc1 | inconclusive [inhibitor, partial curve] | 
Cc1[nH]c2ccccc2c1C(=O)CN1C(=O)NC2(CCCCCC2)C1=O | inconclusive [inhibitor, partial curve] | 
Cc1cc(SCc2ccc([N+](=O)[O-])cc2)nc(=O)[nH]1 | inconclusive [inhibitor, single point] | 
Cc1ccccc1Cn1cc(S(=O)(=O)CC(=O)Nc2nccs2)c2ccccc21 | inconclusive [inhibitor, partial curve] | 

SMILES | Potency | activity change, negative = inhibition
COC(=O)C1=C(C)N=C2SC(C)C(=O)N2C1c1cccc(F)c1 (stereo not drawn) | inconclusive [inhibitor, single point] | 
CC1Cc2ccccc2N1C(=O)CNCCCN(C)C (stereo not drawn) | inconclusive [inhibitor, single point] | 
O=C(/C=C/c1ccc(Cl)cc1)N(c1ccccn1)C1CCCCC1 | inconclusive [inhibitor, single point] | 
C=CCOC(=O)C1=C[C@@H](c2csc3ccccc23)C[C@@H](OCc2ccc(CO)cc2)O1 | inconclusive [inhibitor, partial curve] | 
Cc1cccc(C(=O)Nc2cccc(NC(=O)c3ccccc3)c2)c1 | inconclusive [inhibitor, single point] | 
CCCCn1c(C2CCCCC2)nc2cc3[nH]c(=O)c(C(C)C)nc3cc21 | inconclusive [inhibitor, single point] | 
O=C(O)C1=C[C@H](c2ccc(F)cc2)C[C@H](OCc2ccc(CO)cc2)O1 |  | inactive: 29.1%
CCCCCOC(=O)C1=C(C)NC(=O)NC1c1ccc2c(c1)OCO2 (stereo not drawn) |  | inactive: 7.2%
COc1cc(C)ccc1OCCON1C(=O)CCC1=O |  | inactive: 16.7%
COc1cc2c(cc1OC)CN(C(=O)CSc1ccc(F)cc1)CC2 | inconclusive [inhibitor, single point] | 
Oc1ccc(C=NNc2ccccn2)c(O)c1 | inconclusive [inhibitor, partial curve] | 
CC(C)[C@@H](NC(=O)C1CCC(CNC(=O)[C@H](Cc2ccccc2)NC(=O)OC(C)(C)C)CC1)C(=O)O (stereo partly drawn) |  | inactive: 14.8%
CCCC(=O)NC1=C(Cl)C(=O)c2ccccc2C1=O | active: 3.16 µM | 
CN(c1ccccc1)S(=O)(=O)c1cccc(C(=O)Nc2ccc3c(c2)CCC3)c1 | inconclusive [inhibitor, partial curve] | 
CCOCCCNc1nc(C(F)(F)F)nc2c1nnn2Cc1ccccc1Cl | active: 11.2 µM | 
C=CCNC(=O)/C(C#N)=C/c1c(C)nn(-c2ccccc2)c1Cl | inconclusive [inhibitor, partial curve, poor fit] | 
COc1ccccc1OCC(=O)Nc1ccc(O)cc1C(=O)O |  | inactive: 11.8%
CCCCN(C(=O)NCCCCCCNC(=O)N(CCCC)C1CCS(=O)(=O)C1)C1CCS(=O)(=O)C1 (stereo not drawn) |  | inactive: 16.3%
COc1ccc([C@H]2CC(=O)C=C(c3cc(Cl)ccc3OC)C2)cc1 | inconclusive [inhibitor, partial curve] | 
CC1Cc2ccccc2N1C(=S)NC(=O)c1ccc(Cl)cc1Cl (stereo not drawn) |  | inactive: 14.3%
CCN(C(=O)CSc1cc(C)c2cccc(C)c2n1)C1CCS(=O)(=O)C1 (stereo not drawn) | inconclusive [inhibitor, single point] | 
CCOc1ccc(C(=O)N(c2ccccn2)C2CCCCC2)cc1 | inconclusive [inhibitor, full curve] | 
O=C(Nc1ccc(Cl)c(Cl)c1)N(Cc1cccnc1)Cc1ccco1 | inconclusive [inhibitor, partial curve, poor fit] | 

SMILES | Potency | activity change, negative = inhibition
COc1ccc(OC)c(CC(=O)NC(c2ccccc2)c2ccccc2)c1 | inconclusive [inhibitor, single point] | 
Cc1nc(Nc2cnc(/C=C/c3cc(C(=O)Nc4cccc(C(F)(F)F)c4)ccc3C)cn2)cc(N2CCNCC2)n1 |  | inactive: -8.6% [at 8.37 µM]
Cc1ccc(N2C(=O)[C@@H]3[C@H](C2=O)C2CCCN2[C@@H]3C(=O)c2ccccc2)cc1 (stereo partly drawn) | inconclusive [inhibitor, partial curve] | 
C=CCOc1ccc(CNC(C)(C)C)cc1OC |  | inactive: -1.06%
Cc1ccc(S(=O)(=O)N2CCCCC2)cc1NC(=O)c1ccccc1Cl | inconclusive [inhibitor, single point] | 
Cc1cc(/C=N/NC(=O)c2ccccc2F)c(C)n1-c1ccccc1 | active: 7.94 µM | 
COc1ccc(N(CC(=O)NCc2cccnc2)S(=O)(=O)c2ccc(C)c([N+](=O)[O-])c2)cc1 |  | inactive: -0.125%
CCOc1cc(C(=O)Nn2cnnc2)cc(OCC)c1OCC |  | inactive: 3.18%
CN1CCN(C(=O)CSc2nc3ccc(NC(=O)c4ccccc4F)cc3s2)CC1 | inconclusive [inhibitor, single point] | 
COc1cccc(CNc2cnc3ccccc3c2)c1O |  | inactive: -24.1%
O=C(CSc1nc(-c2ccc(F)cc2)cs1)NCCN1C(=O)CSC1=O | inconclusive [inhibitor, single point] | 
Cc1ccc(S(=O)(=O)N(CC(=O)Nc2cccnc2)c2cccc([N+](=O)[O-])c2)cc1 | inconclusive [inhibitor, partial curve] | 
CC1CCc2nc(NC(=O)Nc3ccc4c(c3)OCO4)sc2C1 (stereo not drawn) | inconclusive [inhibitor, full curve] | 
CCc1nnc(NS(=O)(=O)c2ccc(NC(=O)c3ccccc3OC)cc2)s1 |  | inactive: -2.05%
CC1(C)Cc2c(C#N)c(SCCO)nc(N3CCOCC3)c2CO1 | inconclusive [inhibitor, partial curve, poor fit] | 
Cc1cc(C(=O)CSc2nnnn2-c2ccc(Cl)cc2)c(C)n1CC1CCCO1 (stereo not drawn) | inconclusive [inhibitor, partial curve] | 
Cc1cc(C(=O)N2CCN(c3ccccc3Cl)CC2)c(C)o1 |  | inconclusive: -34.5% [inhibitor]
CCN(C(=O)c1cnc(NC(C)C)cc1C(F)(F)F)c1ccc(Cl)cc1 | inconclusive [inhibitor, single point] | 
CCCCc1ccc(NC(=S)Nc2ccc(Cl)c(S(=O)(=O)N(C)C)c2)cc1 | inconclusive [inhibitor, single point] | 
CN(c1ccc(OCc2ccc([N+](=O)[O-])cc2)cc1)S(=O)(=O)c1ccccc1 | inconclusive [inhibitor, single point] | 
COc1cccc(-n2nc(-c3ccnn3-c3ccc(C)cc3)c(=O)n(C)c2=O)c1 | inconclusive [inhibitor, single point] | 
COc1ccc(-n2nc(C(=O)NCC(=O)NC3CCCCC3)c3ccccc3c2=O)c(OC)c1 |  | inactive: 22.2%
